The values that follow come from PubChem BioAssay AID1346428 (National Center for Advancing Translational Sciences (NCATS), 2018).

Out of some 48,000 compounds screened, about 1,200 (2.5%) were called active. Another 2% or so got no clear call; they are omitted.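 How the source made its calls: active means activation of at least 60% and not above a set upper limit (about 1 call in 100 departs from these limits); inconclusive means activation of 40% to 60%, or above that upper limit; inactive means activation under 40%.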 The list shows a part of the results.

Sequence of UniProt O75388 (O75388 whole entry, looked up, the tested form may be a part): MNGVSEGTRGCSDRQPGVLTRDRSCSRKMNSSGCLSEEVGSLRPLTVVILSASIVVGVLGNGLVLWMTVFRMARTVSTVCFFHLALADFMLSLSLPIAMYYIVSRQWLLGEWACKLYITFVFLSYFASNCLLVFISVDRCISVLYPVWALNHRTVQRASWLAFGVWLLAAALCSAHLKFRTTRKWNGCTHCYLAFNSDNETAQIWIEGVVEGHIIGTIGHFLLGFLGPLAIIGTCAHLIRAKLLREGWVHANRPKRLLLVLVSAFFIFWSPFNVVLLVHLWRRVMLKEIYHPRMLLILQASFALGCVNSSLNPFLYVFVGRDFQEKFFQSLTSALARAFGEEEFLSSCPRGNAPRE

For this experiment, the target named is Probable G-protein coupled receptor 32 (Homo sapiens) (UniProt O75388). Put plainly: qHTS for Agonists of Human Resolvin D1 Receptor DRV1. To be noted: CHO-K1 GPR32 beta-arrestin PathHunter luminescence, 90 min; at 76.9 µM; hits give high values; zero percent set by DMSO-only wells. In a few lines:
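PathHunter enzyme-fragment complementation, CHO-K1 GPR32 stable line; 2,500 cells/well, overnight attach; cpd 90 min 37 °C 5% CO2; detection reagent 1 h RT; chemiluminescence. DMSO = EC0.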
(qHTS replaces the single test concentration by a dilution series.)
On to `Cc1ccc2cc3cc(C(=O)N4CCN(c5ccc(Cl)cc5)CC4)oc3nc2c1`, for which the activation is inactive: 0.622%. As for `CCOc1ccc(NC(=O)CC2C(=O)N(c3ccccc3)C(=O)N2CCc2cccs2)cc1` (centres undefined), the activation was inactive: -10.5%.

With `COc1ccc(-c2cn3nc(N4CCC(C(=O)Nc5ccccc5OC)CC4)sc3n2)cc1`, the activation was inactive: -0.151%. For `CCN(CC)C(=O)c1sc2c(c1C)c(=O)n(-c1ccccc1)c(=O)n2Cc1c(C)cc(C)cc1C`, the activation is inactive: -36.1%. As for `O=S(c1cc(Cl)cc(Cl)c1O)c1cc(Cl)cc(Cl)c1O`, the figure is inactive: 4.93%; as for `COc1ccc(-n2nc3ccc(NC(=O)c4ccc(C#N)cc4F)cc3n2)cc1Cl`, inactive: -11.3%. As for `O=C(COc1ccccc1Cl)Nc1nnc(S(=O)(=O)N2CCCC2)s1`, the figure is inactive: 9.35%; as for `Cc1ccc(NC(=O)CCc2c(C)nn(-c3ccc(N4CCOCC4)nn3)c2C)c(C)c1`, inactive: 7.73%. As for `CCOc1ccccc1NC(=O)C(CC(C)C)NC(=O)C1CCC(C)CC1` (centres undefined), the figure is inactive: -12.7%; as for `COc1cccc2c1cc1c(=O)n(CC(=O)N3CCN(c4cccc(C(F)(F)F)c4)CC3)nc(C)n12`, inactive: -2.29%; as for `CCCCN(CC)C(=O)CSc1nc2n[nH]c(C)c2c(=N)n1-c1cccc(C)c1`, inactive: -13.7%. With `CC(Oc1c(Cl)cccc1Cl)C1=NCCN1` (centres undefined), the activation was inactive: -25.7%. As for `COc1cccc2sc(NC(=O)CS(=O)(=O)c3ccc(C)cc3)nc12`, the figure is inactive: -3.15%. As for `CCOc1ccc(NC2SC(=O)N(Cc3ccccc3)C2=O)cc1` (centres undefined), the figure is inactive: -43.7%; as for `COc1ccc(Cn2c(CO)cnc2SCC(=O)Nc2ccc3c(c2)OCCO3)cc1`, inactive: 20.7%. As for `COc1cccc(COC(=O)c2ccc(-c3nnn(Cc4cccc(OC)c4)n3)cc2)c1`, the figure is inactive: -0.15%; as for `O=C(Nc1cccs1)Nc1ccc(F)cc1F`, inactive: -10.4%.

For `O=C(O)Cn1c(-c2cccs2)cc2cc(Cl)ccc21`, the activation is inactive: -25.2%. As for `O=C(Nc1cccc(C(F)(F)F)c1)c1cc(-c2ccc(Cl)s2)nc2ccccc12`, the figure is inactive: -8.12%. With `Cc1ccc(S(=O)(=O)n2nc(-c3ccc(Cl)cc3)nc2NCc2ccccc2)cc1`, the activation is inactive: 2.35%.

As to `Cn1c(-n2cccc2)c(-c2c(-c3ccc(F)cc3)[nH]c3c2c(=O)n(C)c(=O)n3C)c(=O)n(C)c1=O`, the activation was inactive: -13.1%. As for `COCCCNC(=O)Cn1nc(N2CCN(c3ccccc3)CC2)ccc1=O`, the figure is inactive: -3.08%.

With `CCCSc1oc(-c2ccco2)nc1S(=O)(=O)c1ccc(Br)cc1`, the activation is inactive: -22.3%. Take `COCCn1ccc2c(OCC(=O)Nc3c(C)cc(C)cc3C)cccc2c1=O`: the activation was inactive: -10.5%. As for `CC(=O)N1CCc2c(sc3c2c(=O)n(-c2ccc(F)cc2)c(=O)n3Cc2ccc(C#N)cc2)C1`, the figure is inactive: -2.19%; as for `CN(C)CC/C=C1\c2ccccc2COc2ccccc21`, inactive: -2.14%. In the case of `CC1CCc2c(sc3nnn(Cc4cccc(C(=O)OC(C)C)c4)c(=O)c23)C1` (centres undefined), the activation is inactive: -10.2%. On to `COc1ccc(CC(=O)Nc2cc(-c3cn4cccnc4n3)ccc2C)cc1OC`, for which the activation is inactive: -11.8%. As for `CCn1c(C(=O)NCc2ccccc2OC)cc2sccc21`, the figure is inactive: -15.4%; as for `CCOc1ccccc1CNC(=O)C1CCN(S(=O)(=O)c2c(C)noc2/C=C/c2ccccc2F)CC1`, inactive: -5.45%. In the case of `COc1ccc(-n2ccnc(NCc3cccs3)c2=O)cc1OC`, the activation is inactive: -0.385%. As for `CCCCc1ccc(NC(=O)c2cc(-c3ccc(C)c(F)c3)on2)cc1`, the figure is inactive: 17.2%. Take `Cc1ccc(OCc2nc(-c3ccc(C(=O)NCCc4ccc(Cl)cc4)cc3)oc2C)cc1`: the activation was inactive: 2.36%. As for `Cc1ccc(NC(=O)CN2C(=O)CCc3ccccc32)cc1C`, the figure is inactive: -2.52%; as for `CC(C)Nc1ccc(-c2nc(-c3ccncc3)no2)cc1[N+](=O)[O-]`, inactive: -6.16%; as for `Cc1ccccc1CN1C(=O)c2ccccc2Sc2ccc(C(=O)NC3CCCCC3)cc21`, inactive: -5.21%.

Regarding `COc1ccc(NC(=O)c2nn(C)c3c2CS(=O)(=O)c2ccccc2-3)cc1Cl`, the activation was inactive: 7.93%. As for `COc1ccc(C2=C(Nc3ccc(Br)c(C)c3)c3ccccc3C2=O)cc1`, the figure is inactive: -33.1%; as for `CCc1nn(CC(=O)N2CCN(c3cccc(OC)c3)CC2)c(=O)c2cc3occc3n12`, inactive: 7.48%; as for `CCOC(=O)c1c(C)[nH]c(C)c1S(=O)(=O)N1CCCC(C(=O)N2CCN(c3ccccc3F)CC2)C1` (centres undefined), inactive: -7.13%.

For the molecule `COc1ccc(N(CC(=O)NC(C)c2ccccc2)S(=O)(=O)c2c(C)nn(C)c2C)cc1` (centres undefined), the activation was inactive: -4.76%. As for `COc1ccc(N2CCN(Cc3nc4c(c(=O)[nH]c(=O)n4C)n3Cc3ccc(C)cc3)CC2)cc1`, the figure is inactive: -21.9%; as for `CC1CN(C(=O)CCC(=O)NCc2cccc(Cl)c2)c2ccccc2S1` (centres undefined), inactive: -24%. With `COc1ccc(S(=O)(=O)c2cnc3cc(OC)c(OC)cc3c2N2CCCC(C)C2)cc1` (centres undefined), the activation is inactive: -32%. As for `O=C(O)c1ccc(Cn2cnc3cccnc32)cc1`, the figure is inactive: 0.748%; as for `CC1CCN(CC2CCN(C(=O)NCc3ccc(F)cc3)CC2)CC1`, inactive: 2.87%.

For the molecule `Cc1ccc(/C=C/c2onc(C)c2S(=O)(=O)N2CCC(C(=O)N3CCN(c4cccc(C)c4)C(C)C3)CC2)cc1` (centres undefined), the activation was inactive: 2.18%. Turning to `CCOc1ccc(C2C(C(=O)Nc3ccccc3)=C(C)Nc3nc(SCc4cccc(OC)c4)nn32)cc1` (centres undefined), the activation was inactive: 40.6%.

Turning to `O=C(NCc1ccccc1)c1nc(S(=O)(=O)Cc2ccc(F)cc2)ncc1Cl`, the activation was inactive: -25.3%. Turning to `O=S(=O)(NCCc1csc2nc(-c3ccccc3)nn12)c1cccs1`, the activation was inactive: 23.7%. As for `CCOc1ccc(-c2cn3c(n2)sc2cc(C(=O)NCCc4ccc(OC)cc4OC)ccc23)cc1`, the figure is inactive: -10.4%; as for `Cc1nn(C(C)C(=O)NC2CCC(C)CC2)c(=O)c2c1sc1ccccc12` (centres undefined), inactive: -16.3%; as for `CCc1nc(-c2cc(S(=O)(=O)N3CCN(c4ccc(OC)cc4)CC3)ccc2OC)no1`, inactive: -2.27%. As for `CCc1ccc(OCc2nc(-c3ccc(-n4cccc4)cc3)no2)cc1`, the figure is inactive: 3.31%; as for `Cc1ccc(C)c(Cn2c3ccccc3c3cnn(CC(=O)N4CCCCC4)c(=O)c32)c1`, inactive: -6.06%; as for `CCCN1C(C(=O)c2ccccc2)=C(OC(=O)c2ccc(F)cc2)c2ccccc2S1(=O)=O`, inactive: -53.5%. With `CCOc1ccc(NC(=O)Cn2c(CCC(=O)O)ccc2-c2ccc(Cl)cc2)cc1`, the activation is inactive: -14.5%. As for `CC(C)c1ccc(C2=CC(c3cccc(Cl)c3)n3ncnc3N2)cc1` (centres undefined), the figure is active: 73.7%. `Cc1ccc(NC(=O)CCS(=O)(=O)c2cccc3nonc23)c(C)c1`: the activation was inactive: -6.39%. For `COc1ccc(Cl)cc1NC(=O)c1cc(S(=O)(=O)N2CCc3ccccc32)cn1C`, the activation is inactive: -5.87%.

For `Cc1nn(CCC(=O)NC(C)C)c(=O)c2nn(-c3ccccc3)c(C)c12`, the activation was inactive: 4.55%. As for `COc1cc2c(C(=O)N3CCN(c4cccc(C)c4)C(C)C3)cn(CC(C)C)c(=O)c2cc1OC` (centres undefined), the activation was inactive: 0.0592%. As for `Cc1cccc(-n2c(=O)c3ccccc3n(Cc3ccccc3C#N)c2=O)c1`, the figure is inactive: -10.4%; as for `O=C(CSc1nc2c([nH]c3ccccc32)c(=O)n1-c1cccc(Cl)c1)N1CCc2ccccc21`, inactive: 9.87%.

As to `CCc1nnc(NC(=O)c2nc(S(C)(=O)=O)ncc2Cl)s1`, the activation is inactive: 41.7%. As for `Cc1ccc2nc(NCc3ccccc3Cl)c3nnnn3c2c1`, the figure is inactive: -5.49%; as for `COc1cccc(Cc2nc3ccccc3nc2SCC(=O)N2CCCCC2C)c1` (centres undefined), inactive: -6.24%. As for `COc1cccc(C(=O)CN2CCN(S(=O)(=O)c3ccc(Cl)cc3)CC2)c1`, the figure is inactive: -39.2%.

Take `CC(C)(C)c1ccc(C(=O)CCCCl)cc1`: the activation was inactive: 12.7%.

As for `CCOc1ccccc1NC(=O)c1sc2nc3c(cc2c1N)CN(Cc1ccccc1)CC3`, the activation was inactive: -25.8%. As to `O=C(CN1C(=O)CSc2ccc(S(=O)(=O)N3CCCCC3)cc21)NCc1ccc(F)cc1Cl`, the activation was inactive: 12.4%. Turning to `O=C(NCc1ccco1)c1ccc2c(c1)N(Cc1ccc(F)cc1)C(=O)c1ccccc1S2=O` (centres undefined), the activation is inactive: -2.88%. On to `COc1cc(NC(=O)CCc2c(C)n(C)c3cc(-c4ccccc4C)nn3c2=O)cc(OC)c1OC`, for which the activation was inactive: -8.7%. As for `COc1cc2ccccc2cc1C(=O)Nc1ccc2oc(-c3cc(Br)ccc3Cl)nc2c1`, the activation was inactive: -2.99%.

Regarding `CCCOC(=O)C(C)n1nnc2sc(-c3ccccc3)cc2c1=O` (centres undefined), the activation is inactive: 1.27%.

On to `Cc1ccn2c(Nc3ccc4c(c3)OCO4)c(-c3ccc(O)cc3)nc2c1`, for which the activation is inactive: -4.92%.

As for `CCCCN1CCCC1C(=O)Nc1c(C)cc(C)cc1C` (centres undefined), the activation is inactive: -20.5%. As for `CCCCOc1ccc(S(=O)(=O)n2nc(C)c(S(=O)(=O)N3CCC(C)CC3)c2C)cc1`, the figure is inactive: 9.19%; as for `O=C(CSCc1cnn(-c2ccccc2)c1-n1cccc1)NCc1ccccc1F`, inactive: -15.4%. As for `COc1cccc(CNS(=O)(=O)c2cc(Br)cc3c2N(C(C)=O)C(C)C3)c1` (centres undefined), the figure is inactive: -0.955%; as for `CCCN1CCN(c2ncnc3sc(C(=O)Nc4ccc(N(CC)CC)cc4C)c(C)c23)CC1`, inactive: -24.7%. As for `Cc1ccc2oc(C(=O)Nc3ccc(S(=O)(=O)N(C)Cc4ccccc4)cc3)cc(=O)c2c1`, the figure is inactive: 23%; as for `CN(C)CCCO[C@@H]1[C@H]2OC(C)(C)O[C@H]2O[C@@H]1[C@H](O)CO`, inactive: 8.73%; as for `Cc1cccc(Cc2cnc(NC(=O)c3ccc4c(c3)CC(c3ccccc3)OC4=O)s2)c1` (centres undefined), inactive: 12.2%.
